Assay results reported in PubChem BioAssay AID761 (NMMLSC, 2007).
Screen size: about 190,000 compounds; about 400 (0.21%) were called active. This list was built around the results that the source calls inconclusive (neither active nor inactive); the mix of calls is not that of the screen.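 How the source made its calls: active means percent activity GTP binding at least 20 points away from the 100% baseline, either down as inhibitor or up as activator; inconclusive means compound flagged as likely green fluorescent from well-wide comparison; inactive means the rest.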

target: Cell division control protein 42 homolog (Homo sapiens) (UniProt P60953); test: wildtype Cdc42 fluorescent GTP binding changes, either direction – biochemical, multiplex bead flow cytometry, Bodipy-GTP, primary screen (AID 761); settings: GST-Cdc42 beads, at 10 µM, actives lie on both sides;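 further: median bead fluorescence of bound Bodipy-FL-GTP at 100 nM; 0% = excess unlabeled GTP control and 100% = no compound control; below 100% means less GTP binding so inhibitor and above means activator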
Sequence of UniProt P60953 (P60953 whole entry, looked up): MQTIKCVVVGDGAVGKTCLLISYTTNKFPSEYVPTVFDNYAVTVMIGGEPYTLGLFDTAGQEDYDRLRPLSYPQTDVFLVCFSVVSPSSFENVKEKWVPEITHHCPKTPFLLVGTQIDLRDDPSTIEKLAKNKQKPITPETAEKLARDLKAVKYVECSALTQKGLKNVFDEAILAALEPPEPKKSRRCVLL

Structure (SMILES)	percent activity (GTP binding)
COC(=O)CSc1nnc(-c2ccco2)o1	inconclusive: 108%
CSc1nc(N)c(C#N)c(-c2ccccc2Cl)c1C#N	inconclusive: 104%
O=C(Nc1ccccc1Cl)N1CCN(c2ccc3nnc(-c4ccccc4)n3n2)CC1	inconclusive: 90%
O=C(NN1C(=O)c2ccccc2NC1c1ccccc1OCc1ccccc1)c1ccncc1 (stereo unspecified)	inconclusive: 105%
Cc1ccc(NC(=O)NC2(C(=O)NCc3ccccc3)CCCCC2)cc1	inconclusive: 96%
CCOc1ccc(NC(=S)N=Nc2c(O)[nH]c3ccccc23)cc1	inconclusive: 72%
Cc1ccc(C)c(C(=O)OCC(=O)Nc2ccc(N3CCOCC3)cc2)c1	inconclusive: 95%
CCC(C)N(C(=O)c1csnn1)C(C(=O)NC(C)(C)C)c1ccccc1 (stereo unspecified)	inactive: 104%
COC(=O)c1ccccc1NC(=S)NC(NC(=O)c1ccccc1[N+](=O)[O-])C(Cl)(Cl)Cl (stereo unspecified)	inconclusive: 108%
Cc1ccc(C)c(NC(NC(=O)c2ccccn2)C(Cl)(Cl)Cl)c1 (stereo unspecified)	inactive: 91%
OCCNC1=NCCN1	inconclusive: 104%
O=C(CSc1ncn[nH]1)CSc1ncn[nH]1	inactive: 101%
CCCOc1ccc(/C=N/Nc2ccc(C(=O)O)cc2)c(OCCC)c1	inactive: 93%
Cc1ccc(S(=O)(=O)NCCCCCC(=O)NC(C)(C)CO)cc1	inconclusive: 102%
Cc1cccc(-n2cccc2)c1C#N	inconclusive: 102%
Cc1nnc2ccc(-c3cccc(NS(C)(=O)=O)c3)nn12	inconclusive: 91%
CCn1c(SCC(=O)Nc2nc3ccc(OC)cc3s2)nc2c1c(=O)n(C)c(=O)n2C	inconclusive: 94%
O=c1c2cnn(-c3ccccc3)c2ncn1Cc1cccnc1	inconclusive: 103%
Cc1ccc(C(=O)Nc2cccc([N+](=O)[O-])c2)cc1S(=O)(=O)Nc1cccc(C(=O)O)c1	inconclusive: 89%
Cc1cccc(OCC(=O)N/N=C/c2ccc3c(c2)OCO3)c1	active: 77%
FC(F)(F)c1cccc(-c2nnc3ccc(C(F)(F)F)cn23)c1	inconclusive: 105%

Structure (SMILES)	percent activity (GTP binding)
O=C(c1cccs1)N1CCCC(c2ccccc2)C1 (stereo unspecified)	inconclusive: 97%
CCN1C(=O)CC2(C[N+]3(C)CCC2CC3)C1=O (stereo unspecified)	inactive: 102%
CCCCNC(=S)NCCN1CCN(C(=S)NCCCC)CC1	inactive: 98%
COc1ccc(-n2nc(N)c(C(N)=O)n2)cc1	inactive: 90%
O=C(CSc1cccc[n+]1[O-])Nc1cc([N+](=O)[O-])ccc1Cl	inconclusive: 95%
CCOc1cc(C(=O)NC(C)CC)cc(OCC)c1OCC (stereo unspecified)	inconclusive: 106%
c1ccc(-c2cc3c(N4CCCCC4)ncnc3s2)cc1	inconclusive: 91%
Clc1cccc2c1CCN(Cc1nc(-c3cnccn3)no1)C2	inactive: 99%
Cc1cccc2sc(N(CCN(C)C)C(=O)/C=C/c3cccs3)nc12	inconclusive: 102%
O=[N+]([O-])c1ccc(Cl)c(/C=N/n2c(-c3cccnc3)n[nH]c2=S)c1	inconclusive: 83%
O=C1CCCc2nc(N3CCc4ccccc43)ncc21	inconclusive: 92%
Cc1c(NC(=O)Nc2ccccc2Cl)sc(=S)n1C	inconclusive: 102%
Cc1ccc(-c2nnc3sc(C4COc5ccccc5O4)nn23)cc1 (stereo unspecified)	inconclusive: 95%
Cc1ccnc(NC(=O)Cn2cc([N+](=O)[O-])cn2)c1	inactive: 100%
NC(N)=Nc1nc2ccc(Cl)cc2c(=O)[nH]1	inconclusive: 91%
Cc1cc(C)n(Cc2n[nH]c(=S)n2Cc2ccccc2)n1	inconclusive: 396%
COc1ccc(NC(=O)CSc2nnc(-c3ccccc3F)n2C2CC2)cc1S(N)(=O)=O	inactive: 97%
Cn1c(SCCOc2cccc(Cl)c2)nnc1-c1ccncc1	inconclusive: 108%
O=C(COC(=O)c1ccccc1C(=O)N1CCN(c2ccccc2)CC1)NCc1ccccc1	inconclusive: 97%
Cc1cc(=O)oc2cc(OCC(=O)OCC(=O)Nc3ccccc3F)ccc12	inconclusive: 94%
COC(/C=C/Nc1ccc(OC)cc1)=C(C#N)C#N	inconclusive: 105%

Structure (SMILES)	percent activity (GTP binding)
O=C(COC(=O)Cc1ccc(S(=O)(=O)N2CCOCC2)s1)Nc1ccc2c(c1)OCO2	inconclusive: 105%
Cc1cccc(CSc2ncccc2C(=O)O)c1	active: 149% [activator]
COc1ccc(/C=N/n2c(N)c(S(=O)(=O)c3cccs3)c3nc4ccccc4nc32)cc1OC	active: 61%
Cn1c(=N)c(S(=O)(=O)c2ccccc2)cc2c(=O)n3ccccc3nc21	inconclusive: 81%
Cc1ccc(NC(=S)N(Cc2ccccc2)Cc2cccs2)c(C)c1	inactive: 100%
COc1cc(/C=C2/SC(=S)NC2=O)ccc1OS(=O)(=O)c1ccc(C)cc1	inactive: 98%
COc1cccc(/C=C2\SC(=S)N(NC(=O)c3ccncc3)C2=O)c1	inconclusive: 70%
COc1ccc(N(CC(=O)O)S(=O)(=O)c2ccccc2[N+](=O)[O-])c(OC)c1	inconclusive: 94%
NC(=O)CSc1nnc(-c2ccc(O)cc2)n1Cc1ccco1	inconclusive: 82%
O=C(CSc1nnc(CNC(=O)c2cccs2)o1)NC1CCCC1	inconclusive: 105%
CCOc1ccc(-n2c(=O)[nH]cc(C(=O)Nc3ccc(OC)c(OC)c3)c2=O)cc1	inactive: 96%
c1ccc(C2=Nn3c(nnc3-c3ccncc3)SC2)cc1	inconclusive: 104%
Cc1ccc(C(=O)Nc2ccc(Br)cc2)cc1S(=O)(=O)Nc1ccccn1	inconclusive: 93%
CC(=O)Nc1ccc(-n2nnnc2SCC(=O)NCc2cccs2)cc1	inactive: 94%
COc1cc(/C=N/NC(=O)c2cn(-c3cccc(C)n3)cn2)ccc1O	inconclusive: 83%
Cc1sc(NC(=O)c2ccco2)c(CN2CCN(Cc3ccccc3)CC2)c1C	inactive: 91%
Cc1ccc(NC(=S)Nc2ccc(OC(F)F)c(Cl)c2)cc1F	inactive: 98%
Cc1nc2ccccc2c(=O)n1/N=C/c1ccc(O)cc1O	inconclusive: 92%
O=C(O)CN(c1ccccc1)S(=O)(=O)c1cc(C(F)(F)F)cc(C(F)(F)F)c1	inactive: 96%
